# The other results are listed elsewhere or left out.
# B1: Cohesin-hDCIR (Homo sapiens) (protein)
# chain: LDDLDAVRIKVDTVNAKPGDTVRIPVRFSGIPSKGIANCDFVYSYDPNVLEIIEIEPGDIIVDPNPDKSFDTAVYPDRKIIVFLFAEDSGTGAYAITKDGVFATIVAKVKEGAPNGLSVIKFVEVGGFANNDLVEQKTQFFDGGANVGDTTEPATPTTPVTTPTTTDDLDAASQKYSQLLEKKTTKELVHTTLECVKKNMPVEETAWSCCPKNWKSFSSNCYFISTESASWQDSEKDCARMEAHLLVINTQEEQDFIFQNLQEESAYFVGLSDPEGQRHWQWVDQTPYNESSTFWHPREPSDPNERCVVLNFRKSPKRWGWNDVNCLGPQRSVCEMMKIHLHHHHHH
# Legend:
# Assay in all cases: glycan array binding signal (z-score within array); higher = stronger binding
# Conditions in all cases: glycan notation: IUPAC condensed, linker removed
# [1] = molecular target: Neu5Ac(a2-3)Gal(b1-4)GlcNAc(b1-3)Gal(b1-4)GlcNAc(b1-3)Gal(b1-4)GlcNAc
# Procedure, shortened: (§1)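 Columns mapping to the same glycan were averaged after glycan names were converted to IUPAC-condensed notation. The data come from 3228 arrays in the Consortium for Functional Glycomics database, limited to those with an available protein sequence. Binding is reported as a within-array Z-score averaged across arrays of one protein sequence and across linkers.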
# [2] = molecular target: Neu5Ac(a2-3)Gal(b1-4)GlcNAc(b1-3)Gal(b1-4)GlcNAc(b1-3)Gal(b1-4)GlcNAc(b1-2)Man(a1-3)[Neu5Ac(a2-3)Gal(b1-4)GlcNAc(b1-3)Gal(b1-4)GlcNAc(b1-3)Gal(b1-4)GlcNAc(b1-2)Man(a1-6)]GalNAc
# Procedure, shortened: as §1
# [3] = molecular target: Neu5Ac(a2-3)Gal(b1-4)GlcNAc(b1-3)Gal(b1-4)GlcNAc(b1-3)GalNAc
# Procedure, shortened: as §1
# [4] = molecular target: Neu5Ac(a2-3)Gal(b1-4)GlcNAc(b1-3)Gal(b1-4)GlcNAc(b1-3)[Neu5Ac(a2-3)Gal(b1-4)GlcNAc(b1-3)Gal(b1-4)GlcNAc(b1-6)]GalNAc
# Procedure, shortened: as §1
# [5] = molecular target: Neu5Ac(a2-3)Gal(b1-4)GlcNAc(b1-3)Gal(b1-4)GlcNAc(b1-6)[Gal(b1-3)]GalNAc
# Procedure, shortened: as §1
# [6] = molecular target: Neu5Ac(a2-3)Gal(b1-4)GlcNAc(b1-3)Gal(b1-4)[Fuc(a1-3)]GlcNAc
# Procedure, shortened: as §1
# [7] = molecular target: Neu5Ac(a2-3)Gal(b1-4)GlcNAc(b1-3)GalNAc
# Procedure, shortened: as §1
# [8] = molecular target: Neu5Ac(a2-3)Gal(b1-4)GlcNAc(b1-3)[Neu5Ac(a2-3)Gal(b1-4)GlcNAc(b1-6)]GalNAc
# Procedure, shortened: as §1
# [9] = molecular target: Neu5Ac(a2-3)Gal(b1-4)GlcNAc(b1-6)GalNAc
# Procedure, shortened: as §1
# [10] = molecular target: Neu5Ac(a2-3)Gal(b1-4)GlcNAc(b1-6)[Gal(b1-3)]GalNAc
# Procedure, shortened: as §1
# [11] = molecular target: Neu5Ac(a2-3)Gal(b1-4)GlcNAc(b1-6)[Neu5Ac(a2-3)Gal(b1-3)]GalNAc
# Procedure, shortened: as §1
# [12] = molecular target: Neu5Ac(a2-3)Gal(b1-4)GlcNAc6S
# Procedure, shortened: as §1
# [13] = molecular target: Neu5Ac(a2-3)Gal(b1-4)[Fuc(a1-3)]GlcNAc
# Procedure, shortened: as §1
# [14] = molecular target: Neu5Ac(a2-3)Gal(b1-4)[Fuc(a1-3)]GlcNAc(b1-2)Man
# Procedure, shortened: as §1
# [15] = molecular target: Neu5Ac(a2-3)Gal(b1-4)[Fuc(a1-3)]GlcNAc(b1-3)Gal
# Procedure, shortened: as §1
# [16] = molecular target: Neu5Ac(a2-3)Gal(b1-4)[Fuc(a1-3)]GlcNAc(b1-3)Gal(b1-4)GlcNAc
# Procedure, shortened: as §1
# [17] = molecular target: Neu5Ac(a2-3)Gal(b1-4)[Fuc(a1-3)]GlcNAc(b1-3)Gal(b1-4)[Fuc(a1-3)]GlcNAc(b1-3)Gal(b1-4)[Fuc(a1-3)]GlcNAc
# Procedure, shortened: as §1
# [18] = molecular target: Neu5Ac(a2-3)Gal(b1-4)[Fuc(a1-3)]GlcNAc(b1-3)GalNAc
# Procedure, shortened: as §1
# [19] = molecular target: Neu5Ac(a2-3)Gal(b1-4)[Fuc(a1-3)]GlcNAc(b1-6)[Gal(b1-3)]GalNAc
# Procedure, shortened: as §1
# [20] = molecular target: Neu5Ac(a2-3)Gal(b1-4)[Fuc(a1-3)]GlcNAc(b1-6)[Neu5Ac(a2-3)Gal(b1-3)]GalNAc
# Procedure, shortened: as §1
# [21] = molecular target: Neu5Ac(a2-3)Gal(b1-4)[Fuc(a1-3)]GlcNAc6S
# Procedure, shortened: as §1
# [22] = molecular target: Neu5Ac(a2-3)Gal6S(b1-4)GlcNAc
# Procedure, shortened: as §1
# [23] = molecular target: Neu5Ac(a2-3)Gal6S(b1-4)[Fuc(a1-3)]GlcNAc
# Procedure, shortened: as §1
# Neu5Ac(a2-3)GalNAc = molecular target: Neu5Ac(a2-3)GalNAc
# Procedure, shortened: as §1
# [24] = molecular target: Neu5Ac(a2-3)GalNAc(b1-4)GlcNAc
# Procedure, shortened: as §1
# [25] = molecular target: Neu5Ac(a2-3)[GalNAc(b1-4)]Gal(b1-4)Glc
# Procedure, shortened: as §1
# [26] = molecular target: Neu5Ac(a2-3)[GalNAc(b1-4)]Gal(b1-4)GlcNAc
# Procedure, shortened: as §1
# [27] = molecular target: Neu5Ac(a2-3)[GalNAc(b1-4)]Gal(b1-4)GlcNAc(b1-3)GalNAc
# Procedure, shortened: as §1
# [28] = molecular target: Neu5Ac(a2-3)[Neu5Ac(a2-6)]GalNAc
# Procedure, shortened: as §1
# Neu5Ac(a2-6)Gal = molecular target: Neu5Ac(a2-6)Gal
# Procedure, shortened: as §1
# [29] = molecular target: Neu5Ac(a2-6)Gal(b1-3)GlcNAc(b1-3)[Gal(b1-4)GlcNAc(b1-6)]Gal(b1-4)Glc
# Procedure, shortened: as §1
# Neu5Ac(a2-6)Gal(b1-4)Glc = molecular target: Neu5Ac(a2-6)Gal(b1-4)Glc
# Procedure, shortened: as §1
# [30] = molecular target: Neu5Ac(a2-6)Gal(b1-4)GlcNAc
# Procedure, shortened: as §1
# [31] = molecular target: Neu5Ac(a2-6)Gal(b1-4)GlcNAc(b1-2)Man
# Procedure, shortened: as §1
# [32] = molecular target: Neu5Ac(a2-6)Gal(b1-4)GlcNAc(b1-2)Man(a1-3)Man(b1-4)GlcNAc(b1-4)GlcNAc
# Procedure, shortened: as §1
# [33] = molecular target: Neu5Ac(a2-6)Gal(b1-4)GlcNAc(b1-2)Man(a1-3)[Gal(b1-4)GlcNAc(b1-2)Man(a1-6)]Man(b1-4)GlcNAc(b1-4)GlcNAc
# Procedure, shortened: as §1
# [34] = molecular target: Neu5Ac(a2-6)Gal(b1-4)GlcNAc(b1-2)Man(a1-3)[GlcNAc(b1-2)Man(a1-6)]Man(b1-4)GlcNAc(b1-4)GlcNAc
# Procedure, shortened: as §1
# [35] = molecular target: Neu5Ac(a2-6)Gal(b1-4)GlcNAc(b1-2)Man(a1-3)[GlcNAc(b1-4)][Neu5Ac(a2-6)Gal(b1-4)GlcNAc(b1-2)Man(a1-6)]Man(b1-4)GlcNAc(b1-4)GlcNAc
# Procedure, shortened: as §1
binder,measurement,setting,value
B1,glycan array binding signal (z-score),[1],0.494
same,glycan array binding signal (z-score),[2],0.024
same,glycan array binding signal (z-score),[3],-0.034
same,glycan array binding signal (z-score),[4],0.538
same,glycan array binding signal (z-score),[5],0.001
same,glycan array binding signal (z-score),[6],0.992
same,glycan array binding signal (z-score),[7],-0.23
same,glycan array binding signal (z-score),[8],0.114
same,glycan array binding signal (z-score),[9],2.14
same,glycan array binding signal (z-score),[10],-0.58
same,glycan array binding signal (z-score),[11],0.272
same,glycan array binding signal (z-score),[12],-0.518
same,glycan array binding signal (z-score),[13],-0.342
same,glycan array binding signal (z-score),[14],-0.276
same,glycan array binding signal (z-score),[15],-0.674
same,glycan array binding signal (z-score),[16],-0.056
same,glycan array binding signal (z-score),[17],-0.669
same,glycan array binding signal (z-score),[18],-0.024
same,glycan array binding signal (z-score),[19],-0.187
same,glycan array binding signal (z-score),[20],-0.28
same,glycan array binding signal (z-score),[21],0.027
same,glycan array binding signal (z-score),[22],-0.608
same,glycan array binding signal (z-score),[23],-0.602
same,glycan array binding signal (z-score),Neu5Ac(a2-3)GalNAc,-0.456
same,glycan array binding signal (z-score),[24],-0.431
same,glycan array binding signal (z-score),[25],-0.157
same,glycan array binding signal (z-score),[26],-0.4
same,glycan array binding signal (z-score),[27],-0.336
same,glycan array binding signal (z-score),[28],0.082
same,glycan array binding signal (z-score),Neu5Ac(a2-6)Gal,-0.59
same,glycan array binding signal (z-score),[29],-0.512
same,glycan array binding signal (z-score),Neu5Ac(a2-6)Gal(b1-4)Glc,-0.39
same,glycan array binding signal (z-score),[30],-0.356
same,glycan array binding signal (z-score),[31],-0.38
same,glycan array binding signal (z-score),[32],-0.482
same,glycan array binding signal (z-score),[33],-0.564
same,glycan array binding signal (z-score),[34],-0.636
same,glycan array binding signal (z-score),[35],-0.661

# — the supplement of paper PMC8728848
